The record followed here is the supplement of paper PMC11283458.

Structures can show the parent of a compound that is named as a salt. The list shows a part of the results. Repeats are few or missing, and single values can be far off.

Test [1] has as its system Mef2d microexon dual Nano/Firefly luciferase splicing reporter in Neuro-2a cells. Briefly: B-score of Firefly/Nano luminescence ratio, V1 Mef2d microexon reporter (B-score (plate-normalised)); higher = more Mef2d microexon inclusion. The following applies: 24 h.
For test [2] the test system is unchanged. Briefly: B-score of Nano/Firefly luminescence ratio, V2 Mef2d microexon reporter (B-score (plate-normalised)); higher = more Mef2d microexon inclusion. The following applies: 24 h.
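Throughout, for B-score of Nano/Firefly luminescence ratio, V2 Mef2d microexon reporter: compounds at 4 µM (PKI library 0.5 µM) on Dox-inducible N2A Flp-In cells with PEST-tagged luciferases, 384-well plates, B-score from per-plate median-polish residual over median absolute residual.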

With `CC[C@]1(O)C[C@@H]2CN(CCc3c([nH]c4ccccc34)[C@@](C(=O)OC)(c3cc4c(cc3OC)N(C)[C@H]3[C@@](O)(C(=O)OC)[C@H](OC(C)=O)[C@]5(CC)C=CCN6CC[C@]43[C@@H]65)C2)C1` [Vinblastine sulfate salt] (4 µM), the B-score in test [1] is -2.77; in test [2], -7.72.

Take `COc1cc2c(cc1O)CC[C@@H]1[C@@H]2CC[C@]2(C)[C@@H](O)CC[C@@H]12` [2-Methoxyestradiol] (4 µM): the B-score in test [1] is -3.06; in test [2], -5.47.

For `O=C(Oc1ccc2c(c1)oc(=O)c1ccccc12)c1ccccc1Cl` (4 µM), the B-score in test [1] was found to be 2.87; in test [2] it was 2.38.

As for `Nc1ccc(S(=O)(=O)Nc2cccc(C(F)(F)F)c2)cc1` (4 µM), the B-score in test [1] was 3.37; in test [2], 2.56.

`O=C(Nc1ccc(F)cc1)Nc1ccc(Br)c(C(F)(F)F)c1` (4 µM): the B-score was 2.22 in test [1] and 1.29 in test [2].

Consider `CC(=O)[C@]1(O)Cc2c(O)c3c(c(O)c2[C@@H](O[C@H]2C[C@H](N)[C@H](O)[C@H](C)O2)C1)C(=O)c1ccccc1C3=O` (4 µM), for which the results for the B-score in test [1] and in test [2] were -20 and -21.5, respectively.

In the case of `O=C(OCCN1CCCCC1)c1c[nH]c2ccccc12` (4 µM), the B-score in test [1] was -6.04; in test [2] it was -6.07.

Regarding `O=C1CSC(c2cccnc2)N1c1ccccc1` (stereo unspecified) (4 µM), the figures for the B-score in test [1] and in test [2] were 9.44 and 14.6, respectively.

`N/C(=N\OC(=O)CC(c1ccccc1)c1ccccc1)c1ccccc1` (4 µM): the B-score came to 6.66 in test [1] and 4.26 in test [2].

Take `COc1nc(Nc2nc3ccccc3c(=O)[nH]2)nc2ccc(C)cc12` (4 µM): the B-score in test [1] was found to be 67.2; in test [2], 8.01.

On to `O=C1Nc2ccccc2/C1=C/c1c[nH]nc1-c1cccs1` (4 µM), for which the results for the B-score in test [1] and in test [2] were 2.73 and 7.93, respectively.

Turning to `C=CC[C@H](N)C(=O)O` [L-allylglycine] (4 µM), the B-score in test [1] is 8.78; in test [2], 2.9.

As for `COC(=O)c1sc(S(C)=O)c2c1CC(C)(C)CC2=O` (stereo unspecified) (4 µM), the results for the B-score in test [1] and in test [2] were 9.85 and 9.27, respectively.

For the compound `Cn1cc(/C=C2\C(=O)Nc3cccnc32)c2ccccc21` (4 µM), the B-score in test [1] was 3.01; in test [2], 6.5.

As to `O=C(Nc1noc2ccccc12)c1cc2c(s1)CCCC2` (4 µM), the B-score was -1.3 in test [1] and -2.54 in test [2].

With `COC(=O)Nc1nc2ccc(SC(C)C)cc2[nH]1` [Methiazole] (4 µM), the B-score was -6.58 in test [1] and -31.6 in test [2].

Take `O=C(NC=Cc1ccsc1)Nc1cc(C(F)(F)F)cc(C(F)(F)F)c1` (4 µM): the values for the B-score in test [1] and in test [2] were 4.59 and 3.99, respectively.

Regarding `O=[N+]([O-])c1ccc(Sc2ssc(=S)c2-c2ccccc2)nc1` (4 µM), the B-score in test [1] is -6.01; in test [2] it was -12.9.

With `O=C(O)[C@]1(Cc2cccc(Nc3nccs3)n2)CC[C@@H](Oc2cccc(Cl)c2F)CC1` (0.5 µM), the B-score came to 7.53 in test [1] and 4.69 in test [2].

On to `CCOC(=O)c1cc(-c2csc(Nc3ccccc3)n2)on1` (4 µM), for which the B-score was 4.72 in test [1] and 1.28 in test [2].

On to `Cc1nn(CCC(N)=NOC(=O)c2cc(Cl)cc(Cl)c2)c(C)c1Oc1ccc(Cl)cc1.O.O` (4 µM), for which the B-score was determined as 3.54 in test [1] and 4.28 in test [2].

`CON=C1CCCc2c(C(=O)NN=Cc3ccccc3Cl)sc(SC)c21` (4 µM): the values for the B-score in test [1] and in test [2] were -8.77 and -10.7, respectively.

With `N#CC(=NNc1ccc(Cl)cc1Cl)C(=O)c1ccc(Cl)cc1` (4 µM), the B-score in test [1] was 6.33; in test [2] it was 1.83.

As for `COc1cccc2cc(-c3nc(C4CCC(C(=O)O)CC4)n4ncnc(N)c34)[nH]c12.Cl` (stereo unspecified) [OSI-027 hydrochloride] (0.5 µM), the B-score in test [1] was -4.61; in test [2], -3.57.

As for `Cc1cc(C(=O)NOCCO)c(Nc2ccc(I)cc2F)n(C)c1=O` (0.5 µM), the results for the B-score in test [1] and in test [2] were 11.2 and 8.17, respectively.

Consider `O=C(Nc1ccccc1)O/N=C(\Nc1ccc(OC(F)(F)F)cc1)c1c(Cl)cccc1Cl` (4 µM), for which the B-score in test [1] was 1.35; in test [2] it was 12.

For `O=C1Nc2ccccc2/C1=C/c1c[nH]nc1-c1ccccc1[N+](=O)[O-]` (4 µM), the B-score in test [1] came out at 4.47; in test [2], 7.6.

As to `Cn1cnc([N+](=O)[O-])c1Sc1ncnc2[nH]cnc12` [Azathioprine] (4 µM), the values for the B-score in test [1] and in test [2] were -9.44 and -7.73, respectively.

Regarding `C[N+](C)(C)CCC(=O)c1cccc2ccccc12` [2-(alpha-Naphthoyl)ethyltrimethylammonium iodide] (4 µM), the B-score was 10.2 in test [1] and 2.35 in test [2].

As to `COC(=O)Nc1nc2cc(C(=O)c3ccccc3)ccc2[nH]1` [Mebendazole] (4 µM), the B-score in test [1] is -6.07; in test [2], -17.2.

For `CC1=C/C(=N/OS(=O)(=O)c2ccc(C)cc2)C(C(C)C)=CC1=O` (4 µM), the B-score in test [1] is -1.78; in test [2], -4.61.

With `O=C(Nc1cccc(Cl)c1)Nc1ccc(Sc2ccccc2)nc1Sc1ccccc1` (4 µM), the B-score turned out to be 1.73 in test [1] and 6.79 in test [2].

`COc1ccc(-c2cc3c(C)nc(N)nc3n([C@H]3CC[C@H](OCCO)CC3)c2=O)cn1` (0.5 µM): the B-score in test [1] is -5.23; in test [2], -5.67.
